Several values for one entry are separate records, joined by “and”; a condition that tells them apart may be missing. Identical values can stand only once. This continues a long series; more values of the same kind are listed elsewhere. Toxic doses and inconclusive results are not listed.
Tested on: CD2F1 mice, L1210 leukemia ip, survival T/C
Assay: NCI In Vivo Anticancer Drug Screen. Data for tumor model L1210 Leukemia (intraperitoneal) in CD2F1 (CDF1) mice
Details: higher = longer survival
Description: The antitumor activity of compounds was measured in mice bearing transplantable tumors. Survival or tumor size were measured and the results are expressed as the measurement made in the treated group (T) divided by the measurement made in the vehicle treated control group (C). The tumor model used in this assay is L1210 Leukemia (intraperitoneal) in CD2F1 (CDF1) mice

**Q.** How did the T/C (endpoint: mean survival time, dose: 25.0 mg/kg/injection, schedule: Q01DX009 (ip), vehicle: saline with Tween-80) turn out when `O=c1n(CC2CO2)c(=O)n(CC2CO2)c(=O)n1CC1CO1` (stereo not drawn) was run?
**A.** 198 % of control

**Q.** What about the T/C (endpoint: mean survival time, dose: 25.0 mg/kg/injection, schedule: Q01DX009 (ip), vehicle: suspension in saline) of the same molecule?
**A.** 168 % of control

**Q.** And the T/C (endpoint: mean survival time, dose: 50.0 mg/kg/injection, schedule: Q01DX009 (ip), vehicle: saline with Tween-80)?
**A.** 277 % of control

**Q.** What about the T/C (endpoint: mean survival time, dose: 50.0 mg/kg/injection, schedule: Q01DX009 (ip), vehicle: saline) of the same molecule?
**A.** 419 % of control

**Q.** And the T/C (endpoint: mean survival time, dose: 50.0 mg/kg/injection, schedule: Q01DX009 (ip), vehicle: suspension in saline)?
**A.** 203 % of control and 285 % of control

**Q.** And the T/C (endpoint: mean survival time, dose: 100.0 mg/kg/injection, schedule: Q01DX009 (ip), vehicle: saline with Tween-80)?
**A.** 297 % of control

**Q.** What about the T/C (endpoint: mean survival time, dose: 100.0 mg/kg/injection, schedule: Q01DX009 (ip), vehicle: saline) of the same molecule?
**A.** 172 % of control and 253 % of control

**Q.** What about the T/C (endpoint: mean survival time, dose: 100.0 mg/kg/injection, schedule: Q01DX009 (ip), vehicle: suspension in saline) of the same molecule?
**A.** 315 % of control

**Q.** And the T/C (endpoint: mean survival time, dose: 150.0 mg/kg/injection, schedule: Q01DX009 (ip), vehicle: saline)?
**A.** 211 % of control

**Q.** And the T/C (endpoint: mean survival time, dose: 150.0 mg/kg/injection, schedule: Q04DX003 (ip), vehicle: saline)?
**A.** 243 % of control

**Q.** What about the T/C (endpoint: mean survival time, dose: 200.0 mg/kg/injection, schedule: Q01DX009 (ip), vehicle: saline) of the same molecule?
**A.** 386 % of control

**Q.** What about the T/C (endpoint: mean survival time, dose: 200.0 mg/kg/injection, schedule: Q04DX005 (ip), vehicle: saline) of the same molecule?
**A.** 171 % of control

**Q.** And the T/C (endpoint: mean survival time, dose: 300.0 mg/kg/injection, schedule: Q01DX009 (ip), vehicle: saline)?
**A.** 96 % of control

**Q.** And the T/C (endpoint: mean survival time, dose: 300.0 mg/kg/injection, schedule: Q04DX003 (ip), vehicle: saline)?
**A.** 309 % of control

**Q.** And the T/C (endpoint: mean survival time, dose: 300.0 mg/kg/injection, schedule: Q04DX005 (ip), vehicle: saline)?
**A.** 177 % of control

**Q.** What about the T/C (endpoint: median survival time, dose: 15.0 mg/kg/injection, schedule: Q03HX024 (ip), vehicle: saline) of the same molecule?
**A.** 246 % of control

**Q.** What about the T/C (endpoint: median survival time, dose: 20.0 mg/kg/injection, schedule: Q03HX016 (ip), vehicle: saline) of the same molecule?
**A.** 256 % of control

**Q.** What about the T/C (endpoint: median survival time, dose: 25.0 mg/kg/injection, schedule: Q03HX008 (ip), vehicle: saline) of the same molecule?
**A.** 186 % of control

**Q.** What about the T/C (endpoint: median survival time, dose: 25.0 mg/kg/injection, schedule: Q03HX024 (ip), vehicle: saline) of the same molecule?
**A.** 740 % of control

**Q.** What about the T/C (endpoint: median survival time, dose: 30.0 mg/kg/injection, schedule: Q03HX016 (ip), vehicle: saline) of the same molecule?
**A.** 296 % of control

**Q.** And the T/C (endpoint: median survival time, dose: 35.0 mg/kg/injection, schedule: Q03HX008 (ip), vehicle: saline)?
**A.** 172 % of control

**Q.** What about the T/C (endpoint: median survival time, dose: 45.0 mg/kg/injection, schedule: Q03HX008 (ip), vehicle: saline) of the same molecule?
**A.** 111 % of control

**Q.** What about the T/C (endpoint: median survival time, dose: 45.0 mg/kg/injection, schedule: Q03HX024 (ip), vehicle: saline) of the same molecule?
**A.** 87 % of control

**Q.** And the T/C (endpoint: median survival time, dose: 50.0 mg/kg/injection, schedule: Q01DX005 (ip), vehicle: saline)?
**A.** 165 % of control

**Q.** What about the T/C (endpoint: median survival time, dose: 50.0 mg/kg/injection, schedule: Q01DX009 (ip), vehicle: saline) of the same molecule?
**A.** 188 % of control

**Q.** What about the T/C (endpoint: median survival time, dose: 50.0 mg/kg/injection, schedule: Q03HX016 (ip), vehicle: saline) of the same molecule?
**A.** 188 % of control

**Q.** What about the T/C (endpoint: median survival time, dose: 55.0 mg/kg/injection, schedule: Q03HX008 (ip), vehicle: saline) of the same molecule?
**A.** 98 % of control

**Q.** And the T/C (endpoint: median survival time, dose: 75.0 mg/kg/injection, schedule: Q01DX009 (ip), vehicle: saline)?
**A.** 213 % of control

**Q.** And the T/C (endpoint: median survival time, dose: 100.0 mg/kg/injection, schedule: Q01DX005 (ip), vehicle: saline)?
**A.** 188 % of control

**Q.** What about the T/C (endpoint: median survival time, dose: 100.0 mg/kg/injection, schedule: Q01DX009 (ip), vehicle: saline) of the same molecule?
**A.** 201 % of control

**Q.** And the T/C (endpoint: median survival time, dose: 150.0 mg/kg/injection, schedule: Q01DX005 (ip), vehicle: saline)?
**A.** 176 % of control

**Q.** And the T/C (endpoint: median survival time, dose: 150.0 mg/kg/injection, schedule: Q01DX009 (ip), vehicle: saline)?
**A.** 202 % of control

**Q.** And the T/C (endpoint: median survival time, dose: 200.0 mg/kg/injection, schedule: Q01DX005 (ip), vehicle: saline)?
**A.** 197 % of control

**Q.** And the T/C (endpoint: median survival time, dose: 200.0 mg/kg/injection, schedule: Q04DX003 (ip), vehicle: saline)?
**A.** 207 % of control

**Q.** What about the T/C (endpoint: median survival time, dose: 300.0 mg/kg/injection, schedule: Q04DX003 (ip), vehicle: saline) of the same molecule?
**A.** 222 % of control

**Q.** What about the T/C (endpoint: median survival time, dose: 300.0 mg/kg/injection, schedule: Q08DX002 (ip), vehicle: saline) of the same molecule?
**A.** 172 % of control

**Q.** And the T/C (endpoint: median survival time, dose: 350.0 mg/kg/injection, schedule: Q01DX001 (oral), vehicle: saline)?
**A.** 108 % of control

**Q.** And the T/C (endpoint: median survival time, dose: 400.0 mg/kg/injection, schedule: Q04DX003 (ip), vehicle: saline)?
**A.** 246 % of control

Reference: PubChem BioAssay AID256 (DTP/NCI, 2004)
